Structures are written as SMILES. Screen size: about 310,000 compounds; about 14,000 (4.5%) showed an effect of 50% or more. The effect is printed as a negative number. The list shows a part of the results.
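Further: peak tail current of the secondary pulse compared with the same well before compound.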

This test deals with human ether-à-go-go-related gene (hERG) potassium channel (human, UniProt Q12809). As to the kind of experiment: primary screen, population patch clamp on CHO cells stably expressing hERG.
Chain of human ether-à-go-go-related gene (hERG) potassium channel (Q12809 whole entry, looked up): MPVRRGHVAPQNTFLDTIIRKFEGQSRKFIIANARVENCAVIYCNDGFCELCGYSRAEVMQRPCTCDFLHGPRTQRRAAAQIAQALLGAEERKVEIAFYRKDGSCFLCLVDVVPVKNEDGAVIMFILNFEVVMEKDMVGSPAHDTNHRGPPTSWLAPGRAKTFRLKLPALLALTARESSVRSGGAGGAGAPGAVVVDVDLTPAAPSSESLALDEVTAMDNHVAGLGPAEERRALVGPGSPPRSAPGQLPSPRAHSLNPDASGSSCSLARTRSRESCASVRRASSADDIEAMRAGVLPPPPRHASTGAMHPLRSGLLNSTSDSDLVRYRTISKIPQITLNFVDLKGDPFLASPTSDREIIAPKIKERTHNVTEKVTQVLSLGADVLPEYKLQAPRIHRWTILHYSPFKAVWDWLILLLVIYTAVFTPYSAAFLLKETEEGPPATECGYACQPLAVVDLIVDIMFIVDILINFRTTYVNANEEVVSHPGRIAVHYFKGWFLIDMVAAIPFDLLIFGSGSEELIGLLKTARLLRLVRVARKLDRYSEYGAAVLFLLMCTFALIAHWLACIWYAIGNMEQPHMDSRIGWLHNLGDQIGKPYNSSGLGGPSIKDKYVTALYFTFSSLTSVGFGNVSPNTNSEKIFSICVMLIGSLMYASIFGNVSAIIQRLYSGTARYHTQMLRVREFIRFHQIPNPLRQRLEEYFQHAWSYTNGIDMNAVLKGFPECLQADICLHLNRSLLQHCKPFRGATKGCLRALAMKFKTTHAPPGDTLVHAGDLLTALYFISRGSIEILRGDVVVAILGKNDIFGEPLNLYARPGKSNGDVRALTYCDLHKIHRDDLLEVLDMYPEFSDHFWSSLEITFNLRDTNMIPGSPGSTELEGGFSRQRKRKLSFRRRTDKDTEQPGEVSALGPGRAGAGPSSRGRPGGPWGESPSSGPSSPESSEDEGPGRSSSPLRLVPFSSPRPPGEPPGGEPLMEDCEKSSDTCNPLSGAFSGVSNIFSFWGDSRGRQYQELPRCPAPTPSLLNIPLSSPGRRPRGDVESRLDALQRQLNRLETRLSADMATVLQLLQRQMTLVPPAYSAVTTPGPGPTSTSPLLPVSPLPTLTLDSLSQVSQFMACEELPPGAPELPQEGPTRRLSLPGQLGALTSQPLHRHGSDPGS
Turning to `COc1ccc(S(=O)(=O)N(C)C)cc1NC(=O)CSC(C)C(=O)Nc1cc(C)on1` (stereo not drawn), the “hERG current change (%, negative = inhibition) at 10uM” value is recorded as -3.57%.
As for `CCn1c(CNc2ccc(Cl)cc2)nnc1SCc1ccc(C)cc1`, the figure is -19.4%; as for `Cc1cccc(NC(=S)NNC(=O)c2ccc(O)cc2O)c1C`, 29.2%.
For `CNC(=O)c1ccc(Nc2nnc(-c3ccc(C(N)=O)cc3)c3ccccc23)cc1`, the “hERG current change (%, negative = inhibition) at 10uM” value is 16.5%.
With `COc1ccc(CN2CNc3c(c(=O)n(C)c(=O)n3C)C2)cc1`, the “hERG current change (%, negative = inhibition) at 10uM” value came to 8.8%.
In the case of `COc1ccc(CC(=O)Nc2ccc(F)c(Cl)c2)cc1S(=O)(=O)N1CCOCC1`, the “hERG current change (%, negative = inhibition) at 10uM” value is -46.1%.
For `COc1ccc(C(=O)OCC(=O)NCc2ccco2)cc1OC`, the “hERG current change (%, negative = inhibition) at 10uM” value is reported as 14%.
With `COc1ccc(CCNC(=O)c2ccc3c(c2)SC2=NS(=O)(=O)CCN23)cc1`, the “hERG current change (%, negative = inhibition) at 10uM” value was -60.4%.
The same measure for `O=C(CCn1c(=O)[nH]c2ccsc2c1=O)N1CCc2ccccc2C1`: 7.28%; for `Cc1ccc(S(=O)(=O)N2CCCCC2)cc1C(=O)N1CCCCCC1`: -12.7%; for `CCSc1nnc(-c2ccc(S(=O)(=O)N3CCOCC3)cc2)n1CC1CCCO1` (stereo not drawn): 3.21%.
With `CS(=O)(=O)c1ccc(Cl)c(C(=O)NCC2CCCCC2)c1`, the “hERG current change (%, negative = inhibition) at 10uM” value was -6.06%.
As for `O=C(N/N=C/C1CC=CCC1)c1cc2ccccc2cc1O` (stereo not drawn), the figure is -9.29%; as for `O=C(COc1ccc(Br)cc1Cl)NC1CCN(Cc2ccccc2)CC1`, -67.3%.
The same measure for `O=[N+]([O-])c1ccc(S(=O)(=O)NCC2CC3CCC2C3)cc1` (stereo not drawn): -3.11%; for `CCOc1ccc(CCNC(=O)CS(=O)Cc2nc(-c3ccc(OC)cc3)oc2C)cc1OCC` (stereo not drawn): -14.7%.
As for `Cc1nc(NC(=O)c2cc(-n3cnnc3)ccc2Cl)ccc1Br`, the “hERG current change (%, negative = inhibition) at 10uM” value is -26.8%.
Take `COc1cccc(/C=C/C(=O)NNC(=O)c2cc(C)oc2C)c1`: the “hERG current change (%, negative = inhibition) at 10uM” value was -25.6%.
With `O=c1[nH]c2ccccc2nc1NCc1ccccc1`, the “hERG current change (%, negative = inhibition) at 10uM” value is 11.8%.
Take `Cc1c(C(=O)Nc2nc3ccccc3[nH]2)oc2c(Cl)cccc12`: the “hERG current change (%, negative = inhibition) at 10uM” value stood at 7.69%.
With `COc1ccccc1/C=C/C=C1\Oc2c(ccc(O)c2CN(C)C)C1=O`, the “hERG current change (%, negative = inhibition) at 10uM” value is given as -27.8%.
As to `Cc1[nH]n(-c2ccccc2)c(=O)c1C(C[N+](=O)[O-])c1ccccc1Cl` (stereo not drawn), the “hERG current change (%, negative = inhibition) at 10uM” value is 16.3%.
`O=C1CCc2cc(S(=O)(=O)Nc3ccccc3F)ccc2N1`: the “hERG current change (%, negative = inhibition) at 10uM” value was -2.66%.
As for `O=c1cc(-c2ccccc2Cl)oc2ccc([N+](=O)[O-])c(O)c12`, the figure is 9.93%.
Take `FC(F)(F)c1cc(N2CCNCC2)c2ccccc2n1`: the “hERG current change (%, negative = inhibition) at 10uM” value is reported as 4.22%.
As for `COS(=O)(=O)[O-].Cc1ccc(S(=O)(=O)Cc2sc3ccccc3[n+]2C)cc1`, the figure is 8.33%; as for `O=S(=O)(CCc1nc2ccccc2o1)c1ccc(Cl)c(Cl)c1`, 13.4%; as for `CCC1(CC)NC(=O)N(CC(=O)OCn2nnc3ccccc3c2=O)C1=O`, 15.7%.
As to `COC(=O)COc1cc(=O)oc2ccc(NS(=O)(=O)c3ccccc3)cc12`, the “hERG current change (%, negative = inhibition) at 10uM” value turned out to be 4.7%.
In the case of `O=C(NC(Cc1ccccc1)C(=O)O)c1ccco1` (stereo not drawn), the “hERG current change (%, negative = inhibition) at 10uM” value is on record as 21.9%.
The same measure for `CCCCCCCC(=O)N/N=C(\C)c1ccc(O)cc1O`: -1.26%; for `Cc1cc(-c2ccccc2)nc(N/N=C/c2ccc(O)cc2O)n1`: 2.45%.
Take `O=C(Nc1ccc(F)cc1)c1nsc(Cl)c1Cl`: the “hERG current change (%, negative = inhibition) at 10uM” value stood at 2.24%.
As for `CCN(Cc1ccccc1)C(=O)C1CCN(C(=O)Nc2ccccc2)CC1`, the “hERG current change (%, negative = inhibition) at 10uM” value was 14.8%.
Turning to `COc1ccc(OC)c(CNC(=O)C2CCC(=O)N2C(C)C)c1` (stereo not drawn), the “hERG current change (%, negative = inhibition) at 10uM” value is 2.28%.
For `Cc1ccc(CCNC(=O)C2CC(=O)N(CCc3ccccc3)C2)cc1` (stereo not drawn), the “hERG current change (%, negative = inhibition) at 10uM” value was -14.1%.
In the case of `O=C(Nc1ccccc1)N1CCCC1c1cccs1` (stereo not drawn), the “hERG current change (%, negative = inhibition) at 10uM” value came out at 18%.
`CCCCn1nc(C(=O)N2CCN(S(=O)(=O)c3ccccc3)CC2)c2ccccc2c1=O`: the “hERG current change (%, negative = inhibition) at 10uM” value is reported as -40.7%.
As to `Cc1ccc(-n2c(C)cc(/C=N/NC(=O)Cn3c4ccccc4c(=O)c4ccccc43)c2C)cc1`, the “hERG current change (%, negative = inhibition) at 10uM” value is 12.4%.
`COc1ccc(C(=O)Oc2c(OC)cc(C(=S)N3CCOCC3)cc2OC)cc1`: the “hERG current change (%, negative = inhibition) at 10uM” value is given as -0.141%.
As to `COC(=O)c1cncn1C(C)c1ccccc1.Cl` (stereo not drawn), the “hERG current change (%, negative = inhibition) at 10uM” value worked out at 8.9%.
With `Cc1csc2ncnc(N3CCN(C(=O)Nc4ccc(OC(F)(F)F)cc4)CC3)c12`, the “hERG current change (%, negative = inhibition) at 10uM” value is recorded as -68%.
Turning to `O=c1c(CN2CCN(Cc3ccccc3)CC2)coc2ccc(Cl)cc12`, the “hERG current change (%, negative = inhibition) at 10uM” value is -42.9%.
For the compound `COc1ccccc1CNC(=O)COC(=O)CSc1ccc(F)cc1`, the “hERG current change (%, negative = inhibition) at 10uM” value turned out to be 12.6%.
The same measure for `Cc1ccc(C(=O)N2CC=C(c3ccccc3)CC2)s1`: 5.93%; for `Cn1c(=O)[nH]c(=O)c2c1nc(SCCO)n2CC(O)COc1ccccc1` (stereo not drawn): 16.2%.
Regarding `CSCc1nnc(NC(=O)c2ccc(S(=O)(=O)N(C)C)cc2)o1`, the “hERG current change (%, negative = inhibition) at 10uM” value amounted to 20.7%.
Turning to `Cc1cc2c(cc1S(=O)(=O)N(C)C1CCCCC1)OCC(=O)N2`, the “hERG current change (%, negative = inhibition) at 10uM” value was 7.2%.
As for `COc1ccc(CNC(=O)CCCC(=O)Nc2cccc(Br)c2)cc1`, the “hERG current change (%, negative = inhibition) at 10uM” value is -9.81%.
For the compound `CCCCc1cc(=O)oc2cc(OCC(=O)N3C[C@H]4C[C@@H](C3)c3cccc(=O)n3C4)ccc12`, the “hERG current change (%, negative = inhibition) at 10uM” value was -26.9%.
The same measure for `CCOC(=O)CNC(=O)Cc1ccc(Cl)cc1`: 12.1%.
In the case of `COc1cc(CN2CCC(C)CC2)ccc1OCc1ccccc1.O=C(O)C(=O)O`, the “hERG current change (%, negative = inhibition) at 10uM” value is on record as -52.9%.
The same measure for `CC(C)(C)c1ccc(OCC(=O)O)cc1`: 17.9%.
Consider `O=Cc1cn(CC(=O)NCC2CCCO2)c2ccccc12` (stereo not drawn), for which the “hERG current change (%, negative = inhibition) at 10uM” value worked out at 5.1%.
In the case of `N#CCN1CCN(c2ccc(C(F)(F)F)cc2)CC1`, the “hERG current change (%, negative = inhibition) at 10uM” value is -6.52%.
In the case of `CCN(CC(=O)Nc1ccccc1C(F)(F)F)C(=O)c1ccc(N2CCCC2=O)cc1`, the “hERG current change (%, negative = inhibition) at 10uM” value is given as -1.02%.
As for `C=CCOc1ccc(CNn2cn[nH]c2=S)cc1OCC`, the figure is 12.7%.

For the origin of these results see publication PMC4336329 (PLoS ONE, 2015).
